# PubChem BioAssay (EPA / NIEHS)
# For part of these data: What follows is the remainder of the data, with few or none of the hits. Results filed as inconclusive are left out. The entries are a selection whose mix differs from that of the whole data set. Active and inactive are the calls of the source. Rule for the calls, unless noted: active = hit-call score of the fitted dose curve at least 0.9, where 1 is the maximum; inactive = score below 0.9.
# Experiments:
# [1] = molecular target: Peroxisome proliferator-activated receptor gamma (Homo sapiens) (UniProt P37231); experiment: OT_PPARg_PPARgSRC1_1440: Odyssey Thera (OT) 24-hour Protein-Complementation Assay for Peroxisome Proliferator-activated Receptor Gamma/ SRC-1 Co-activator (AID 2283388; active = hit-call score of the fitted dose curve at least 0.9, where 1 is the maximum;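 note: nuclear to cytoplasmic ratio of reconstituted Venus YFP fluorescence in fixed imaged cells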)
# Outline: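 Readout: nuclear-to-cytoplasmic 488 nm fluorescence ratio, ≥350 cells per image, 8 images per well, after 24 h compound exposure of HEK293T expressing PPARg/SRC-1 split-YFP fusions. Activity fitted in positive direction against DMSO.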
# [2] = ACEA_AR_agonist_AUC_viability: ACEA Biosciences xCELLigence Real-Time Cell Analysis on Androgen Receptor Agonism for Viability (AID 2283775; active = hit-call score of the fitted dose curve at least 0.9, where 1 is the maximum)
# Outline: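 22Rv1 cells; impedance growth kinetics; 8-pt 1:4 dilutions from 100 uM top final, ≤0.5% DMSO; n = 2; 80 h read; AUC viability, loss-of-signal vs DMSO.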
# [3] = CEETOX_H295R_OHPREG: CeeTox H295R High-throughput Steroidogenesis Assay for OH-Pregnenolone (OHPREG) (AID 2283434); settings: actives raise or lower the signal
# [4] = CEETOX_H295R_ESTRADIOL: CeeTox H295R High-throughput Steroidogenesis Assay for Estradiol (AID 2283440); settings: actives raise or lower the signal;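 note: estradiol secreted into medium quantified by LC-MS/MS after dansyl derivatisation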
# Outline: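 H295R, 48 h forskolin (10 uM) prestim → 48 h compound, 0.1% DMSO final. Estradiol in medium: MTBE extraction, dansyl chloride derivatization, LC-MS/MS. Fit bidirectional vs DMSO baseline; MTT viability in same wells.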
# [5] = CEETOX_H295R_PROG: CeeTox H295R High-throughput Steroidogenesis Assay for Progesterone (PROG) (AID 2283442); settings: actives raise or lower the signal
# Outline: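 Progesterone read-out: HPLC-MS/MS on MTBE extracts of conditioned medium after 48 h chemical exposure of forskolin-primed (10 uM, 48 h) H295R cells. Gain or loss of signal was fitted relative to DMSO baseline.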
# [6] = molecular target: Estrogen receptor (Homo sapiens) + Estrogen receptor beta (Homo sapiens) (UniProt P03372+Q92731); experiment: OT_ER_ERaERb_0480: Odyssey Thera (OT) 8-hour HEK293T Protein-Complementation Assay for Estrogen Receptor-alpha/-beta Heterodimer (AID 2283352; active = hit-call score of the fitted dose curve at least 0.9, where 1 is the maximum)
# Outline: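 Fluorescence intensity readout from a protein-fragment complementation reporter in HEK293T; ER-alpha/ER-beta LBD heterodimer. Dosing 8 h. Gain-of-signal fit relative to DMSO negative control; laser scanning cytometry of whole-well cell population.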
# [7] = read-out: MicroRNA 122 (MIR122), gene 406906; experiment: LTEA_HepaRG_MIR122: Life Technologies and Expression Analysis (LTEA) Assay for MicroRNA 122 (MIR122) using HepaRG (AID 2283516); settings: actives raise or lower the signal; mRNA level, 48 h; note: the transcript read is the microRNA miR-122
# Outline: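 Expression measured by microfluidic qRT-PCR with three housekeeping genes for normalisation, after 48 h treatment of HepaRG cultures. Eight concentrations (top 100 uM, half-log steps, 0.5% DMSO vehicle) in duplicate; gain or loss fitted relative to vehicle.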
# [8] = read-out: sulfotransferase 2A1 (SULT2A1), SULT2A1 (gene 6822); experiment: LTEA_HepaRG_SULT2A1: Life Technologies and Expression Analysis (LTEA) Assay for sulfotransferase 2A1 (SULT2A1) using HepaRG (AID 2283531); settings: actives raise or lower the signal; mRNA level, 48 h
# Outline: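 HepaRG, 48 h chemical exposure, 8-pt half-log curve from 100 uM in 0.5% DMSO, duplicates. Readout: TaqMan qRT-PCR of SULT2A1 mRNA, housekeeping-normalized. Bidirectional fit vs DMSO baseline.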
# [9] = molecular target: Retinoic acid receptor RXR-alpha (Homo sapiens) (UniProt P19793); experiment: OT_NURR1_NURR1RXRa_0480: Odyssey Thera (OT) 8-hour HEK293T Protein Complementation Assay for Nurr1/retinoid X receptor (RXR) (AID 2283385; active = hit-call score of the fitted dose curve at least 0.9, where 1 is the maximum)
# Outline: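 Interaction of Nurr1 with RXRα read as reconstituted reporter fluorescence in a HEK293T fragment-complementation system, 8 h post-treatment; increase over DMSO baseline analysed.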
# [10] = molecular target: Estrogen receptor (Homo sapiens) (UniProt P03372); experiment: OT_ERa_GFPERaERE_0480: Odyssey Thera (OT) 8-hour HeLa Transcription Induction Assay for Estrogen Receptor (AID 2283381)
# Outline: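 Fluorescence microscopy with high-content image analysis measures ERE-driven GFP induction in HeLa cells at 8 h post-dose. Increases fitted against DMSO baseline.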
# [11] = molecular target: Peroxisome proliferator-activated receptor gamma (Homo sapiens) (UniProt P37231); experiment: OT_PPARg_PPARgSRC1_0480: Odyssey Thera (OT) 8-hour Protein-Complementation Assay for Peroxisome Proliferator-activated Receptor Gamma / SRC-1 Co-activator (AID 2283387; active = hit-call score of the fitted dose curve at least 0.9, where 1 is the maximum;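 note: nuclear to cytoplasmic split Venus YFP fluorescence ratio reporting PPARg SRC-1 interaction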)
# Outline: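 Read-out: 488 nm N/C fluorescence ratio from complemented Venus YFP fragments, ≥350 cells per image, gain-of-signal fitted against DMSO baseline. Fusions of PPARg/SRC-1 with IFP1/IFP2 expressed transiently in HEK293T; compounds applied 8 h.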
# [12] = read-out: CYP2C8 (gene 1558); experiment: LTEA_HepaRG_CYP2C8: Life Technologies and Expression Analysis (LTEA) Assay for CYP2C8 using HepaRG (AID 2283483); settings: actives raise or lower the signal; mRNA level, 48 h
# Outline: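 CYP2C8 expression measured by TaqMan qRT-PCR and normalized to three housekeeping genes. HepaRG cultures were treated for 48 h with an eight-point half-log series topping at 100 uM, vehicle 0.5% DMSO, duplicates; fitted both directions against DMSO.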
# [13] = read-out: Cytochrome P450 7A1 (Homo sapiens) (UniProt P22680); experiment: LTEA_HepaRG_CYP7A1: Life Technologies and Expression Analysis (LTEA) Assay for Cytochrome P450 7A1 (CYP7A1) using HepaRG (AID 2283496); settings: actives raise or lower the signal; mRNA level, 48 h
# Outline: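 HepaRG, 48 h exposure, 8-pt half-log series from 100 uM, 0.5% DMSO vehicle, duplicates. Readout: TaqMan qRT-PCR mRNA vs three housekeeping genes; bidirectional curve fit against DMSO baseline.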
# [14] = read-out: growth arrest and DNA damage 45 (GADD45G), GADD45G (gene 10912); experiment: LTEA_HepaRG_GADD45G: Life Technologies and Expression Analysis (LTEA) Assay for growth arrest and DNA damage 45 (GADD45G) using HepaRG (AID 2283499); settings: actives raise or lower the signal; mRNA level, 48 h
# Outline: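 HepaRG, 48 h exposure, top 100 uM, half-log 8-point series, 0.5% DMSO vehicle, duplicates. Readout: GADD45G transcript by qRT-PCR (Fluidigm array), housekeeping-normalised (ACTB/GAPDH/POLR2A). Bidirectional curve fit vs DMSO baseline.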
# [15] = read-out: Transforming Growth Factor (TGFB1), TGFB1 (gene 7040); experiment: LTEA_HepaRG_TGFB1: Life Technologies and Expression Analysis (LTEA) Assay for Transforming Growth Factor (TGFB1) Transporter using HepaRG (AID 2283533); settings: actives raise or lower the signal; mRNA level, 48 h
# Outline: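 qRT-PCR readout of TGFB1 transcript in HepaRG lysates, normalized to three housekeeping genes; gain or loss of signal fitted relative to 0.5% DMSO vehicle. Exposure: 48 h, 8-point curve from 100 uM, duplicate wells.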
# [16] = CCTE_Simmons_CellTiterGLO_HEK293T: Viability Assessment in CCTE's Assays for Thyroperoxidase (TPO) Inhibition, Simmons Lab (AID 2283665; active = hit-call score of the fitted dose curve at least 0.9, where 1 is the maximum)
# Outline: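 Luciferase-coupled ATP content after 24 h exposure gives viability; 8-point series from 5 nM to 87.5 uM final in 0.5% DMSO. Human HEK293T cells, 1% FBS medium, three biological replicates, dichlone positive control.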
# [17] = ACEA_AR_antagonist_AUC_viability: ACEA Biosciences xCELLigence Real-Time Cell Analysis on Androgen Receptor Antagonism for Viability (AID 2283776; active = hit-call score of the fitted dose curve at least 0.9, where 1 is the maximum;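 note: 22Rv1 human prostate cancer cells growing on impedance electrode plates; area under impedance growth curve at 80 h after dosing as viability; hits lower the growth signal relative to DMSO meaning cytotoxicity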)
# Outline: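 Real-time electrical impedance tracks 22Rv1 proliferation after continuous compound exposure (top 100 uM final, 1:4 steps, 8 concentrations). The 80 h area-under-curve serves as the cytotoxicity readout relative to DMSO.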
# [18] = molecular target: Bile acid receptor (Homo sapiens) (UniProt Q96RI1); experiment: NVS_NR_hFXR_Antagonist: NovaScreen (NVS) Nuclear Receptor Binding Assay for human Farnesoid X Receptor Antagonism (FXR) (AID 2283350; active = hit-call score of the fitted dose curve at least 0.9, where 1 is the maximum)
# Outline: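 Antagonist-format time-resolved FRET binding assay with extracted human receptor protein, read 1 hour after compound addition. Compounds first screened at 25 uM in duplicate, then actives tested in concentration series, with loss of signal relative to DMSO.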
# [19] = read-out: growth arrest and DNA damage 45 (GADD45A), GADD45A (gene 1647); experiment: LTEA_HepaRG_GADD45A: Life Technologies and Expression Analysis (LTEA) Assay for growth arrest and DNA damage 45 (GADD45A) using HepaRG (AID 2283458); settings: actives raise or lower the signal; mRNA level, 48 h
# Outline: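 GADD45A expression was measured by TaqMan qRT-PCR against three housekeeping genes (ACTB, GAPDH, POLR2A) after 48 h treatment of HepaRG cells. Eight-point half-log series up to 100 uM in 0.5% DMSO, run in duplicate.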
# [20] = read-out: growth arrest and DNA damage 45 (GADD45B), GADD45B (gene 4616); experiment: LTEA_HepaRG_GADD45B: Life Technologies and Expression Analysis (LTEA) Assay for growth arrest and DNA damage 45 (GADD45B) using HepaRG (AID 2283461); settings: actives raise or lower the signal; mRNA level, 48 h
# Outline: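 qRT-PCR read-out (Fluidigm TaqMan, housekeeping-normalized) of mRNA change in human HepaRG cells after 48 h chemical exposure; 8-point curve, top 100 uM, half-log steps, 0.5% DMSO vehicle; gain or loss fitted relative to DMSO baseline.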
# [21] = read-out: Insulin Like Growth Factor 1 (IGF1), IGF1 (gene 3479); experiment: LTEA_HepaRG_IGF1: Life Technologies and Expression Analysis (LTEA) Assay for Insulin Like Growth Factor 1 (IGF1) using HepaRG (AID 2283506); settings: actives raise or lower the signal; mRNA level, 48 h
# Outline: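 Expression measured by TaqMan qRT-PCR on a Fluidigm array, with three housekeeping genes for normalisation, after 48 h treatment of HepaRG cells. Top concentration 100 uM with half-log steps, 0.5% DMSO vehicle, bidirectional fit.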
# [22] = read-out: Phosphatase and tensin (PTEN), PTEN (gene 5728); experiment: LTEA_HepaRG_PTEN: Life Technologies and Expression Analysis (LTEA) Assay for Phosphatase and tensin (PTEN) using HepaRG (AID 2283523); settings: actives raise or lower the signal; mRNA level, 48 h
# Outline: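 Read-out: TaqMan qRT-PCR of PTEN transcript, normalized to three housekeeping genes, fitted in both directions against 0.5% DMSO. Differentiated human HepaRG cultures received chemicals for 48 h, eight-point half-log series topping at 100 uM.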
# [23] = Tanguay_ZF_120hpf_SOMI_legacy: (Legacy) Oregon State University Tanguay Lab 120 Hour Post-fertilization zebrafish Assay for Somite Malformation (AID 2283647; active = hit-call score of the fitted dose curve at least 0.9, where 1 is the maximum)
# Outline: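 Binary brightfield scoring of somite defects at 120 hpf in 5D wild-type larvae; one dechorionated embryo per well, static exposure from 6 hpf, 28C, sealed and dark. Final DMSO 0.64%; trimethyltin chloride 5uM positive control.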
# [24] = CCTE_Simmons_MITO_basal_resp_rate: CCTE's HepG2 Seahorse XF Respirometric Screening Assay at Basal Respiratory State, Simmons Lab (AID 2284001); settings: actives raise or lower the signal
# Outline: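 Basal-phase OCR in HepG2 cells, read at 6-min intervals across a 72-min run, with test compound injected at 125 nM–100 uM final (7 points). Fitted both directions against DMSO; three biological replicates per concentration.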
# Sequence of UniProt P37231 (P37231 whole entry, looked up, the tested form may be a part): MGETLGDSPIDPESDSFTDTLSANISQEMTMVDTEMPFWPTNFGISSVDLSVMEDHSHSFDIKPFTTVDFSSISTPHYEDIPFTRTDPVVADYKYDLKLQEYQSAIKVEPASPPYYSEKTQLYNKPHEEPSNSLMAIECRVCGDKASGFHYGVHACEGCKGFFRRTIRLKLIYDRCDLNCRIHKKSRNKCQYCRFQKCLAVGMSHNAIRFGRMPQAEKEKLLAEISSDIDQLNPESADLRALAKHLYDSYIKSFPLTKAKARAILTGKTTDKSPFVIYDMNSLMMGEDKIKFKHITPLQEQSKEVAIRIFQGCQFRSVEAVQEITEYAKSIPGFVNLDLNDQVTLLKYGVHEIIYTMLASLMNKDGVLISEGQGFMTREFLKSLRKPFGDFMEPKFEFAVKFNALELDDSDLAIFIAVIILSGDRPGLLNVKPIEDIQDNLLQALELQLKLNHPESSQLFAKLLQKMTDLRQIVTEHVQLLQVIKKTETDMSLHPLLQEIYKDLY
# Sequence of UniProt P19793 (P19793 whole entry, looked up, the tested form may be a part): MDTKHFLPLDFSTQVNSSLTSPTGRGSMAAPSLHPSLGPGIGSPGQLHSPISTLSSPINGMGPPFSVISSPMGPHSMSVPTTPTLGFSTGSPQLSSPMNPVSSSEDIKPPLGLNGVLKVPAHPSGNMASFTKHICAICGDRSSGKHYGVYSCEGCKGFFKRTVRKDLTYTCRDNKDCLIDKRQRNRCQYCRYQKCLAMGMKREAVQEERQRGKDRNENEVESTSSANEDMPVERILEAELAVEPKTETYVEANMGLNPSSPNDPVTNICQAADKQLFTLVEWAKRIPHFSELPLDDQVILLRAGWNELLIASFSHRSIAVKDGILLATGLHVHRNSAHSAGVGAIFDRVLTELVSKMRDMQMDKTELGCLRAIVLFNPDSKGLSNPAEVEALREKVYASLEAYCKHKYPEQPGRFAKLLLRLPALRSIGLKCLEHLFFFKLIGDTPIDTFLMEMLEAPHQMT
# Sequence of Cytochrome P450 7A1 (Homo sapiens) (P22680 whole entry, looked up): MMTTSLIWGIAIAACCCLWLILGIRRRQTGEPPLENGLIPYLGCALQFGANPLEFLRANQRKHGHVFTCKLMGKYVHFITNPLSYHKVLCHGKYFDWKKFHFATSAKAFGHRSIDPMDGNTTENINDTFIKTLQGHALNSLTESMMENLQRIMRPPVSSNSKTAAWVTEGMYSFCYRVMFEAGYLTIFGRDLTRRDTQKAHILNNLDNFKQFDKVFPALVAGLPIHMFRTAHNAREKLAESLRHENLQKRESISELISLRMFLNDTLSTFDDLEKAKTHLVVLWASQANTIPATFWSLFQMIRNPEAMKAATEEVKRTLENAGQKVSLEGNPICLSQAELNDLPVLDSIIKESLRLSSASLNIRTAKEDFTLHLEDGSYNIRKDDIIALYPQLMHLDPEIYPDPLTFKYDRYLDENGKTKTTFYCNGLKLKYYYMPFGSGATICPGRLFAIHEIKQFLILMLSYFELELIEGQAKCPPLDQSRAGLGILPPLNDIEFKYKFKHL
# Sequence of UniProt Q96RI1 (Q96RI1 whole entry, looked up): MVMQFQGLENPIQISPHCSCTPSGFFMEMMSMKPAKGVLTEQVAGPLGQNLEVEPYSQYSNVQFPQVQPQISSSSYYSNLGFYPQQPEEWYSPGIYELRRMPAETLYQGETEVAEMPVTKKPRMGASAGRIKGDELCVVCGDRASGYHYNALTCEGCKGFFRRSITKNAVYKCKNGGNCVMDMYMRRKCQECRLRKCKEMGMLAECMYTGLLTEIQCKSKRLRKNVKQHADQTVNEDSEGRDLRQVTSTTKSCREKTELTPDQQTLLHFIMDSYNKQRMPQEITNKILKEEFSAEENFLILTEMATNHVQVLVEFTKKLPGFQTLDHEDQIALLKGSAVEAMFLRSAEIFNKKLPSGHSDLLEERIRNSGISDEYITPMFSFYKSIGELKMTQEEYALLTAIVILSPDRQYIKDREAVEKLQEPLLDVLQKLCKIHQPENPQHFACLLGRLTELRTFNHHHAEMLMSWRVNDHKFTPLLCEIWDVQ
smiles,measurement,setting,value
O=c1nc(O)n(Cl)c(=O)n1Cl,outcome,[1],inactive
same,outcome,[2],inactive
CCOc1cc(C(C)(C)C)ccc1C1COC(c2c(F)cccc2F)=N1 (configuration not stated),outcome,[3],inactive
same,outcome,[4],inactive
same,outcome,[5],inactive
N#CC(Br)Br,outcome,[6],inactive
same,outcome,[7],inactive
same,outcome,[8],inactive
O=C(NC(=O)c1c(F)cccc1F)Nc1ccc(Oc2ccc(C(F)(F)F)cc2Cl)cc1F,AC50,[9],active: 33.9 µM
CN=C=S,outcome,[10],inactive
CCSC(=O)N(CC)C1CCCCC1,outcome,[11],inactive
same,outcome,[3],inactive
same,outcome,[12],inactive
same,outcome,[13],inactive
same,outcome,[14],inactive
same,outcome,[15],inactive
COC(=O)c1ccccc1C(=O)OC,outcome,[9],inactive
O=c1[nH]c(=O)n(Cl)c(=O)n1Cl,outcome,[11],inactive
same,outcome,[16],inactive
same,outcome,[17],inactive
N#CCCCCC#N,outcome,[18],inactive
O=C(O)c1cc(Oc2ccc(C(F)(F)F)cc2Cl)ccc1[N+](=O)[O-],outcome,[19],inactive
same,outcome,[20],inactive
same,outcome,[21],inactive
same,outcome,[22],inactive
same,outcome,[23],inactive
same,AC50,[24],active: 31.1 µM
